Whole data set: some 33,000 sequences, median “E-score (-0.5 to 0.5)” near -0.012, cut for the highest 2% near 0.27. The list shows a part of the results.
Target: T1, Vhr1 (UniProt P40522)
T1 sequence: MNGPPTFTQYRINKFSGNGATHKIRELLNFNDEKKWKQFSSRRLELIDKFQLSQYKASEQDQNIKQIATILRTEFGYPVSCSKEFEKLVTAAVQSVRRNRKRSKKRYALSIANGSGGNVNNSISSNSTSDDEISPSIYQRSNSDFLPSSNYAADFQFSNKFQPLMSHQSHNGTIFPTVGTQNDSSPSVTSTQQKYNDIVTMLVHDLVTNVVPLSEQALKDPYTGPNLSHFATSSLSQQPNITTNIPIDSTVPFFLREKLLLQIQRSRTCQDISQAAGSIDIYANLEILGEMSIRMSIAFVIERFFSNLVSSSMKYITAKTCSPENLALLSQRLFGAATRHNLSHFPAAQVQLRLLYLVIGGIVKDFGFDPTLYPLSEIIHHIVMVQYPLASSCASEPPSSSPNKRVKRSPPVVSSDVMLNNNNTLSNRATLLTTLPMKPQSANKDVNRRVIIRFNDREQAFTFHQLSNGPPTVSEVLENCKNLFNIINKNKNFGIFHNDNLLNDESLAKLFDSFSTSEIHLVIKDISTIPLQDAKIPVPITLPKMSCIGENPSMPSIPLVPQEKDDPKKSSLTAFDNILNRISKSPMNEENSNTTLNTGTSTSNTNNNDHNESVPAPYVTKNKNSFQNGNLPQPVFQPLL
Assay: PBM E-score (8-mer binding enrichment) (E-score (-0.5 to 0.5)); higher = stronger / more preferred TF binding; most listed sequences are background and not binding sites
Settings: protein concentration: 200 nM; construct: GST-full length
Procedure: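 Universal 'all 10-mer' protein binding microarrays (Agilent AMADID 015681) probed with GST-tagged S. cerevisiae TFs (full-length or DBD) made by in vitro transcription/translation (PURExpress), about 100-200 nM. Bound TF was detected with fluorescent anti-GST. Each ungapped 8-mer (which stands for itself and its reverse complement) is scored by the PBM enrichment score (E-score), a modified Wilcoxon-Mann-Whitney statistic from -0.5 to +0.5, computed with the Universal PBM Analysis Suite. Scale: above 0.35 generally sequence-specific binding.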

Sequence	PBM E-score
GACTTCAC	0.0751
GCGTTTTA	-0.194
CACGATAC	-0.00618
AATTAAAT	-0.125
CAGCCGAG	0.105
CCATTTCC	0.026
AGACTCCA	0.133
AAGTACCA	0.0514
TATAGGCA	-0.118
TAGTTGAA	0.134
TCACGCCA	0.0671
GTCCAAGA	-0.199
AATAATAA	0.119
ACCGTCCT	-0.163
AAATTGGA	-0.0529
ACCAGGTA	0.0155
AACGATTG	-0.0379
AGGTAGTG	0.0605
CCTTGGAG	-0.0367
ACGGTTAT	0.0184
CAATGAGA	-0.0377
CACACGTA	0.0479
CCGTTGCG	-0.0773
CGGAGGGA	-0.206
GAGAAACA	0.0292

Sequence	PBM E-score
GAGTGTGA	0.278
CGGCCAAC	0.0556
ATCCCTAA	-0.332
GCAGCGGC	-0.016
AAAGCCGC	-0.27
TCTAGAGA	-0.331
CGTATTAG	0.0481
AAAAGGTT	-0.287
ATTCATCC	0.0498
AGATAGTC	0.109
CCATAATA	0.213
CCCTGAGG	-0.219
CAGTGATC	0.215
CGTGACCC	0.141
AGTGGCCG	-0.0641
CCCATCGC	0.237
GTTTCTTA	-0.142
GAATTACA	-0.0583
GCGGGAAA	-0.0475
ATGTCGGA	0.135
GGCTGAAA	0.00046
CTCTCGCC	-0.261
AGATCGAA	-0.117
AGGAACCT	-0.0548
ATGTTATA	0.0385

Sequence	PBM E-score
ATAGGCAA	-0.246
ACTCGCTC	0.282
GACTGTGA	0.0963
AGCCCATA	0.03
CTAGATGC	0.00921
AGGATTCC	0.0112
GGCCGCCA	-0.0508
CCATCTCC	0.0056
AGCTCTTA	-0.234
CCGCGTTA	0.112
ATCCAGTG	0.202
GCGCTCGA	0.0188
TAATTCTA	0.0838
CTCCTGGA	-0.208
GCCGGACA	0.0608
ACGTCGGG	-0.102
GATTAGGA	-0.114
CTCAGGAA	-0.112
AGTTTAAG	-0.237
CTGAGACA	0.211
TTAAGCAA	-0.135
ACGAGGGA	0.108
CGCAAAGC	-0.241
CTCCGAAA	-0.13
GAGATGGA	0.00474

Sequence	PBM E-score
CAAGAACA	-0.00753
ATCTCCGC	0.126
GGTATGTA	0.173
CCACTTGC	-0.0135
ACCCATCT	0.171
CGACTCGA	0.21
AAATGAAA	0.0444
AGGCTTAA	-0.269
CGTCGGAA	-0.137
AGGTATTA	-0.0614
ACTACTAG	0.156
GCTTGCCA	-0.165
AGCGCGCT	0.0999
TCGGCGAA	-0.0431
ACTCTAAA	0.08
CTGAAGTC	-0.0789
CATAATCG	0.0927
ATTAAGTC	-0.138
CTACCGCA	-0.0392
AAGAGGTG	-0.0148
GGTGACAA	0.0489
GCATCACC	-0.0259
TTCCTAAA	-0.276
AGGTGAGG	-0.053
CCCGGCAA	-0.0464

Sequence	PBM E-score
GCCCTGCC	-0.0229
AGAAGTCC	-0.316
CTGAACGC	-0.159
CAATACGC	-0.127
CCGGCCGG	0.282
TGATTCAA	0.326
CACATGGA	0.115
ATGAATAC	0.101
TCGCCCAA	-0.00865
CAACCGGG	-0.0769
TGTGATAA	0.164
AAGTGCAA	-0.135
ATGAGGAC	-0.13
GCCATCGC	0.0151
CGTTTGCC	-0.049
AGATAATG	0.0822
ATTATTAA	0.158
CACGCCGG	0.131
TGAAAAAA	-0.0776
ACAATCGA	-0.0819
ACGCGCGG	0.188
CTCATAGA	0.0485
TATACTGA	0.309
ACAAAGTG	0.129
ATATCGGG	-0.0508

Sequence	PBM E-score
AATGAAGT	-0.0303
TCAAATGA	-0.0694
GCATACAA	0.0493
AACGGGAA	-0.149
ACGTGTAG	-0.128
ACCACGTG	0.123
GCATCCCC	-0.204
GGACTCTA	-0.118
ACGGCGAG	0.17
TCCTAAGA	-0.182
ATATGATG	0.191
GTTGTAAA	-0.124
AGGGCAGC	-0.18
AAACATGG	0.0809
ATGCACAA	0.0872
ACCAGCGC	0.00898
GCTTGATA	-0.0152
GAATAAAA	-0.272
AGTCACCC	0.446
CGTCGGTA	-0.118
ACCTAAAA	-0.221
GGCGTTCA	-0.18
ACCCACTG	0.22
CAGTACCC	0.103
TCAGGACA	0.0678

Sequence	PBM E-score
CGCGTCTC	0.0173
CATCGCAC	0.0126
GACCGTTA	-0.144
GCGGTAGA	-0.0235
TATACAGA	0.117
CGCATACA	0.152
ACTCTTAT	0.113
CGAGTCGC	0.34
AAGCGCAT	-0.155
ACCAATTA	0.121
GACAACAC	0.0918
CCCCCCTC	-0.207
TATAGTAA	0.15
TAGTACGA	0.00355
TATTACCA	-0.0433
CTCCTAGC	-0.18
ACGAATAG	-0.137
CCAGTAGG	-0.105
ACTCTCCG	0.0109
TCCCGCAA	-0.0326
CGTGACGA	0.00499
ACACTACA	0.261
ACGGAGGC	-0.125
GGAGTTGA	-0.175
GATCACGC	0.193

Sequence	PBM E-score
GCGGGACC	0.024
GAGCTTTA	-0.188
TAGACGGA	-0.0853
AAGCTGCT	-0.0801
ACACGTAG	0.0491
CCTCGAGA	-0.00909
ACCTCACT	0.0543
ACACATAA	0.119
CCCCTTAA	-0.226
TCTCGGCA	-0.188
TCACGCGA	0.0392
AACGGGAG	0.147
GCACGCAC	-0.121
AGGGGAGA	-0.145
AGTGTACA	0.0323
TTTTAAAA	-0.281
GAGGCTTA	-0.247
CGCAGTCC	0.0797
CTTCCAAC	-0.164
GTGGCTTA	-0.111
CGGTAGGC	-0.223
CGTAGCAA	0.0632
CGGCGTTC	-0.0711
GCGGAATA	-0.0883
GCATGAAC	0.103

Sequence	PBM E-score
CAAGACGG	-0.0483
ACCGAATA	-0.00815
GTCCCGGA	-0.123
ACCATCGT	-0.137
CAGATGGG	-0.0247
CACCATGC	0.0528
GAGTTTTA	-0.112
AGCACAAA	0.031
CCTAGTAG	-0.141
ATTGATAA	0.0392
CCCGACGA	0.144
CCTGGTAA	-0.194
GCGTGGAA	-0.15
GTACAAAC	0.0927
GGCATGTA	-0.057
TATGGTAA	0.179
ATAATTAG	0.00826
ACCATGTG	0.295
TCCCATCA	-0.086
AAAGCGTC	-0.226
AGCCCGGC	0.0911
AAAGTACT	-0.109
CCCACAGC	0.0709
GTAAGAAA	-0.181
CATCCACC	0.0845

Sequence	PBM E-score
CCAGACCG	0.123
CATAACCA	0.0831
ATTAGTGA	0.255
AACGAGTC	0.278
AGCATTGG	-0.0405
AGCCTCGC	-0.138
GTCAAGTA	-0.162
AAAGAGTG	-0.0318
CACTGCGC	0.0598
AGTAAAAG	0.0753
GTCCACTA	-0.0384
CGAAAGTC	-0.131
CAAAAGTG	-0.0415
CGCTGTCC	-0.17
GAGACTCC	0.286
AGGAGAGA	-0.104
TGGAAGAA	-0.02
ATCATGCC	0.0697
ACTCTACC	0.0388
GGTGGTAA	0.0621
AACCCAGG	0.044
AGTCGGTA	-0.0272
ATTGCGAA	-0.0969
AAAATCTA	-0.175
AAACTCTA	-0.122

Sequence	PBM E-score
CAGGTTAA	-0.0304
CTATGAGA	-0.0669
AGTGCTGC	-0.0215
CAGTTATC	-0.0919
AGCGGCCA	-0.173
CGATCCCC	-0.00048
AAAATAGA	-0.0962
ATTCAGTC	0.105
AAATCACA	0.0215
GATGCTAC	0.021
CCCGTGCC	-0.244
ACGAGAGA	-0.154
ATGATGGC	0.158
AGCTACAA	-0.198
ACATGATG	0.0128
AATTACGG	-0.15
ATAGAATC	-0.0714
AATGAAAT	-0.0315
AACTCGGT	-0.11
TCTCTGAA	-0.0732
GCTCTACC	-0.205
AAAAAGAA	-0.108
AGTATCCC	-0.0276
AACATTGT	0.118
AACCCATA	0.271

Sequence	PBM E-score
ACCCCTCG	-0.0469
GCTCCACC	-0.123
AGCTCAAC	-0.0814
AGTGACTG	0.288
ACCGTCGG	-0.0835
ATCGCCGG	0.188
GTTTTTAA	-0.0648
AGAGTCGA	0.157
CTGACGAA	-0.00684
ATGGGATC	-0.0379
CCCCACCA	0.0983
GACGCTAA	-0.272
GCACTGCA	0.108
ATCTAGTC	0.0194
AAAACTGT	-0.0987
AAACTTAC	-0.115
AGCTAAAC	-0.254
CGTCCTCC	-0.218
CGTTATGA	-0.054
CGGTCACG	-0.0515
GCCGGCTA	-0.0689
AGCAAACC	0.224
ACGGTCCC	-0.237
CTGGAACA	-0.00538
GCGCTGCA	-0.0157

Sequence	PBM E-score
GTCCCGCA	-0.139
CGCGCTGC	-0.0742
CCCGCTGC	0.0434
ACAGGGCA	-0.0833
GTCTTATA	-0.0174
GGTATTCA	0.00155
CACCTGTC	0.23
AGCACTCC	0.0396
CAGATAAG	-0.0755
ACGCGAAA	-0.0435
CTCGATCA	0.0844
AGTTGATA	0.122
AGTCACTC	0.428
GACTCACA	0.44
CTGAACAG	-0.0135
GAACAAGC	-0.0662
ATCATTAG	0.148
GAAAAGCC	-0.12
ATCATACA	0.264
ACCTGGTA	-0.00726
ATTAGGTG	0.133
ACAGCTAA	-0.0476
AGGTCAGG	0.0385
ATCTGGAC	0.0267
GGATTTCA	0.00907

Sequence	PBM E-score
ATTTTAGC	-0.141
TATGGGCA	0.131
CGCGTGTC	0.213
GCGGCCCC	-0.0525
TGTTTAAA	-0.122
AGGGCTAC	-0.0114
AGCAGCTC	-0.25
ATGGGTCC	0.0892
CAGATCGC	0.0959
AGCGGGAG	-0.064
ATATCCCC	0.132
GGGTCACC	0.0897
CGCTCATC	-0.0759
GCGGAAGA	0.0151
CTTGGTCA	-0.133
GCACGCTA	-0.121
GCGAATCA	0.345
GCTTAGAC	-0.36
CCAAGGCC	-0.199

Reference: the supplement of paper PMC3334620
